Laboratory results taken from PubChem BioAssay AID445 (National Center for Advancing Translational Sciences (NCATS), 2006).
About 40 (0.04%) of roughly 110,000 compounds were called active. The shares of active, inactive and inconclusive entries below differ from those in the screen. Calls come from the whole dose curve; as a rule, active = well fitted curve in the direction sought with a large enough effect in the signal ratio (not every such curve was filed as active); inconclusive = small, poorly fitted or top-dose-only effect, or a change in a side signal; inactive = flat fitted curve, though single readings scatter; the % refers to the signal ratio. A potency beside an inconclusive call is a rough fit, not a confirmed value.

Assay: IkB Signaling;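 for IkBa stabilization activation: 0% = basal untreated cells and 100% = reference inhibitor full response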
Conditions: ABC-DLBCL IkBa-CBG/CBR dual luciferase ratio (green luciferase fused to IkBa over red control in OCI-Ly3 lymphoma cells), 4 h; IkBa stabilization activation: at 57.1 µM (top of the series), scaled: untreated 0%, proteasome inhibitor 100% unless noted
Outline: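 Curves were fitted separately to fusion (green), unfused (red) and ratio luminescence, then classed by r2, magnitude and activity. Cells: OCI-Ly3, 4 h compound plus doxycycline at 37C; 10 uM MG-132 defined full response.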
Potency is the fitted concentration of half-maximal effect.

SMILES	IkBa stabilization activation	Potency
Cc1nc2c(cc(Oc3ccc(S(=O)(=O)N4CCOCC4)cn3)c3ccsc32)s1	inconclusive: 5.76% [signal inhibitor]	
Cc1nc2sccn2c(=O)c1S(=O)(=O)Nc1cccc(Cl)c1C	inconclusive: -1.46% [signal inhibitor]	
Cc1ccc(OCC(=O)Nc2ccc(C(=O)OCc3cc(=O)n4ccsc4n3)cc2)cc1C	inconclusive: 14.5% [signal inhibitor]	
Cc1ccc(C)n1-c1ccc(-n2cnnn2)cc1	inconclusive: 15.2%	
O=C(c1ccccc1)c1ccc(OCC(O)CN2CCCCC2)cc1 (configuration not stated)	inactive	
O=C(NCc1ccco1)c1cc(-c2cccnc2)nc2ccc(Cl)cc12	inconclusive: 1.91% [signal inhibitor]	
COc1cc([N+](=O)[O-])ccc1NC(=O)N1CCC2(CC1)Nc1cc(F)ccc1-n1cccc12	inconclusive: -2.05% [signal inhibitor]	
O=c1cc(-c2ccccc2)[nH]c2nc(Cl)ccc12		inconclusive: 3.98 µM [rising, full curve]
Cc1ccc(C2C(=O)N(C3CCCCCC3)CC(=O)N2CCC2=CCCCC2)cc1 (configuration not stated)	inconclusive: 1.98% [signal inhibitor]	
Cc1ccccc1Nc1nnc(-c2ccc(C)c(S(=O)(=O)NCC3CCCO3)c2)c2ccccc12 (configuration not stated)	inconclusive: 7.25% [signal inhibitor]	
CC(C)(C)OC(=O)N1CCC(c2c(C(=O)N3CCN(c4ncccn4)CC3)cnn2-c2ccc(F)cc2)CC1	inconclusive: 1.16% [signal inhibitor]	
c1cc2c3c(cccc3c1)NC1(CCCCCC1)N2		inconclusive: 0.631 µM [rising, full curve]
Fc1cccc2sc(Nc3nnc(-c4ccccc4)o3)nc12		inconclusive: 31.6 µM [signal inhibitor, partial curve]
COc1ccc(NC(=O)c2ccco2)cc1NC(=O)c1ccc(OC(C)C)cc1	inactive	
N#C/C(=C\c1ccc(O)c(O)c1)C(=O)NCCc1ccccc1	inactive	
CCOC(=O)c1ccc(NC(=O)C2CCCN(c3cnccn3)C2)cc1 (configuration not stated)	inconclusive: -1.31% [signal inhibitor]	
CCOC(=O)C1=C(CNCc2ccc(Cl)cc2)NC(=O)NC1c1ccccc1 (configuration not stated)	inconclusive: 2.72% [signal inhibitor]	
CC(=O)N1c2ccccc2CC1C(=O)N1CCN(c2ccccc2F)CC1 (configuration not stated)	inconclusive: 1.96% [signal inhibitor]	
COc1cc(NC(=O)Cn2cc(S(=O)(=O)N3CCC(C)CC3)c3ccccc3c2=O)cc(OC)c1OC	inconclusive: 6.18% [signal inhibitor]	
CCOc1ccc(Nc2ncnc3onc(-c4ccc(Cl)cc4)c23)cc1	inconclusive: 0.629% [signal inhibitor]	
COC(=O)c1ccc(OCC2c3cc(OC)c(OC)cc3CCN2C(=O)Cc2ccc(OC)c(OC)c2)cc1 (configuration not stated)	inactive	
Cc1cn2c(=O)c(S(=O)(=O)NCCc3ccc(Cl)cc3)c(C)nc2s1	inconclusive: 0.615% [signal inhibitor]	
COc1cc(C(=O)Nc2nnc(CC(C)(C)C)s2)cc(OC)c1OC	inconclusive: 5.12% [signal inhibitor]	

SMILES	IkBa stabilization activation	Potency
CCc1ccc2occ(CC(=O)NCc3ccccc3)c2c1	inconclusive: -0.764% [signal inhibitor]	
O=C(Nc1scc(-c2ccc(F)cc2)c1C(=O)O)c1ccco1	inconclusive: 4.78% [signal inhibitor]	
COc1ccc(-c2nc3sc(CCNC(=O)c4ccc(C(C)(C)C)cc4)c(C)n3n2)cc1	inconclusive: 0.0235% [signal inhibitor]	
CCOc1ccc(C(=O)Nc2ccc(Cl)c(-c3nc4cc(C)cc(C)c4o3)c2)cc1	inconclusive: 3.94% [signal inhibitor]	
CC[C@H](C)[C@@H]1O[C@]2(CC[C@@H]1C)C[C@H]1C[C@H](CC=C(C)[C@@H](O[C@@H]3C[C@H](OC)[C@H](O[C@@H]4C[C@H](OC)[C@H](O)[C@H](C)O4)[C@H](C)O3)[C@@H](C)C=CC=C3CO[C@@H]4[C@@H](O)C(C)=C[C@@H](C(=O)O1)[C@]34O)O2	inactive	
CCOC(=O)C1CCC(CN(Cc2ccc(OC)cc2)S(=O)(=O)c2ccc(F)c(C(=O)Nc3cc(Cl)ccc3OC)c2)CC1 (configuration not stated)	inconclusive: -1.61% [signal inhibitor]	
Cn1cc(-c2cc3n(n2)CCC(=O)N3CCCC(=O)NCc2ccccc2)c2ccccc21	inactive	
O=C(Cc1cccs1)N1CCN(c2nc(-c3ccc(Cl)cc3)cs2)CC1	inconclusive: 12.1% [signal inhibitor]	
C=CCNC(=O)c1c(N)n(-c2ccc3c(c2)OCO3)c2nc3ccccc3nc12	inactive	
COc1ccc(NC(=O)Cc2ccc(NC(=O)N3CCCCc4ccccc43)cc2)c(OC)c1	inconclusive: 1.24% [signal inhibitor]	
CC(C)c1ccc(NC(=O)c2cc(S(=O)(=O)NCCC3=CCCCC3)ccc2F)cc1	inconclusive: -0.735% [signal inhibitor]	
Cc1cn2c(=O)cc(COC(=O)c3ccc(NC(=O)c4ccc(C(C)(C)C)cc4)cc3)nc2s1	inactive	
CCOC(=O)c1ccc(NC(=O)C(CC)Sc2nncn3c2cc2oc(C)cc23)cc1 (configuration not stated)	inconclusive: 3.86% [signal inhibitor]	
CC1(C)Cc2c(sc3nc(-c4cc5ccccc5o4)n(N)c(=O)c23)CO1	inconclusive: 11.1% [signal inhibitor]	
COC(=O)c1c(-c2cccnc2)csc1NC(=O)c1cc(C)on1	inconclusive: -1.54% [signal inhibitor]	
CCCCNc1nc2c(-c3cccc(Br)c3)nnn2c2ccccc12		inconclusive: 10 µM [signal inhibitor]
O=C(O)CCc1nc(-c2ccccc2-n2cccc2)no1	inactive: -1.04% [at 11.4 µM, scaled: untreated 0%, proteasome inhibitor 100%]	
CCOc1c(C(N)=O)c(-c2ccccc2)c2c(=O)[nH]c3ccccc3n12		inconclusive: 25.1 µM [signal inhibitor, partial curve]
COc1ccc(OCCCn2c(C)nc3cc(C)c(C)cc32)cc1	inconclusive: -0.16% [signal inhibitor]	
CCC1=C(c2ccc(C)cc2)S(=O)(=O)N=C1N1CCC(C(=O)NCCc2cccc(OC)c2)CC1	inconclusive: -0.521% [signal inhibitor]	
COc1cc(/C=c2\sc3nc(-c4ccncc4)nn3c2=O)ccc1OC(C)=O	inactive	
CCOc1ccccc1OCCCCCc1c(C)n[nH]c1C	inconclusive: 2.25% [signal inhibitor]	
CN(C)c1ncc2nc(CCc3ccccc3)c(=O)n(CCc3ccccc3)c2n1	inactive: -1.85% [at 11.4 µM, scaled: untreated 0%, proteasome inhibitor 100%]	

SMILES	IkBa stabilization activation	Potency
COc1cc(CNc2ccc(C)c(C)c2)cc(OC)c1OC	inactive	
COC(=O)C1CCN(c2csc3ccc(C)cc3c2=O)CC1	inconclusive: 15.7% [signal inhibitor]	
CCN(CCCNC(=O)c1ccc(Sc2ccc(Cl)cc2)c(NC(C)=O)c1)c1cccc(C)c1	inconclusive: 1.42% [signal inhibitor]	
Cc1ccc(C)c(NC(=O)CN(Cc2ccccc2)S(=O)(=O)c2ccc3nc(C)sc3c2)c1	inconclusive: 0.0544% [signal inhibitor]	
COc1cc(C2Oc3nc(SC)nnc3-c3ccccc3N2C(C)=O)cc(Cl)c1OC (configuration not stated)	inconclusive: 1.5% [signal inhibitor]	
CCn1c(=O)cc(SCC(=O)NCc2ccccn2)c2ccccc21	inactive	
COc1cc(C(=O)Nc2cc(C)c(OCC(=O)N3CCOCC3)c(C)c2)cc(OC)c1OC	inactive	
Cc1ccc(CNC(=O)CN2C(=O)COc3ccc(S(=O)(=O)N4CCC(C)CC4)cc32)cc1	inconclusive: -0.271% [signal inhibitor]	
CCN(CC)c1cccc(OC2=NS(=O)(=O)c3ccccc32)c1	inactive	
CCSc1nnc(NC(=O)c2cccc(OCc3c(C)noc3C)c2)s1	inconclusive: 5.21% [signal inhibitor]	
COCCNc1ncnc2ccc(-c3cccc(NS(C)(=O)=O)c3)cc12	inactive: -0.272% [at 11.4 µM, scaled: untreated 0%, proteasome inhibitor 100%]	
CSc1cccc(NC(=O)c2ccc3c(c2)CCCN3S(C)(=O)=O)c1	inconclusive: -3.76% [signal inhibitor]	
COc1ccc(NC(=O)c2ccc3[nH]c(C)cc(=O)c3c2)cc1	inactive	
CCCCCCn1c(/C=C/c2ccccc2)nc2ccccc21	inconclusive: 7.51% [signal inhibitor]	
c1ccc(Nc2ncnc3c2oc2ccccc23)cc1	inactive	
Cc1ccc(NC(=O)Cc2coc3c(C)c(C)ccc23)c(C)c1	inactive	
CS(=O)(=O)Nc1cccc(-c2nc(NCc3cccnc3)c3ccccc3n2)c1	inactive: -6.72% [at 11.4 µM, scaled: untreated 0%, proteasome inhibitor 100%]	
COC(=O)c1cc2c(=O)n3ccccc3nc2n(Cc2cccnc2)c1=N	inactive	
Cc1ccc(N2CC(NC(=O)C3CCCC3)CC2=O)cc1 (configuration not stated)	inconclusive: -2.09% [signal inhibitor]	
CCOC(=O)N1CCC(Nc2nc3ccccc3nc2NS(=O)(=O)c2ccc(Cl)cc2)CC1		inconclusive: 3.98 µM [signal inhibitor, partial curve]
COc1cccc(N2CCN(C(=O)Cn3ncc4c3-c3ccccc3OC4)CC2)c1	inconclusive: 5.54% [signal inhibitor]	
